# Measurements reported in the supplement of paper PMC3334620.
# The full ranking holds about 33,000 sequences; the median of “E-score (-0.5 to 0.5)” is about -0.043, and the highest 2% start at about 0.37. This is one part of the list.
# Molecular target: T1, Upc2 (UniProt Q12151)
# T1 sequence: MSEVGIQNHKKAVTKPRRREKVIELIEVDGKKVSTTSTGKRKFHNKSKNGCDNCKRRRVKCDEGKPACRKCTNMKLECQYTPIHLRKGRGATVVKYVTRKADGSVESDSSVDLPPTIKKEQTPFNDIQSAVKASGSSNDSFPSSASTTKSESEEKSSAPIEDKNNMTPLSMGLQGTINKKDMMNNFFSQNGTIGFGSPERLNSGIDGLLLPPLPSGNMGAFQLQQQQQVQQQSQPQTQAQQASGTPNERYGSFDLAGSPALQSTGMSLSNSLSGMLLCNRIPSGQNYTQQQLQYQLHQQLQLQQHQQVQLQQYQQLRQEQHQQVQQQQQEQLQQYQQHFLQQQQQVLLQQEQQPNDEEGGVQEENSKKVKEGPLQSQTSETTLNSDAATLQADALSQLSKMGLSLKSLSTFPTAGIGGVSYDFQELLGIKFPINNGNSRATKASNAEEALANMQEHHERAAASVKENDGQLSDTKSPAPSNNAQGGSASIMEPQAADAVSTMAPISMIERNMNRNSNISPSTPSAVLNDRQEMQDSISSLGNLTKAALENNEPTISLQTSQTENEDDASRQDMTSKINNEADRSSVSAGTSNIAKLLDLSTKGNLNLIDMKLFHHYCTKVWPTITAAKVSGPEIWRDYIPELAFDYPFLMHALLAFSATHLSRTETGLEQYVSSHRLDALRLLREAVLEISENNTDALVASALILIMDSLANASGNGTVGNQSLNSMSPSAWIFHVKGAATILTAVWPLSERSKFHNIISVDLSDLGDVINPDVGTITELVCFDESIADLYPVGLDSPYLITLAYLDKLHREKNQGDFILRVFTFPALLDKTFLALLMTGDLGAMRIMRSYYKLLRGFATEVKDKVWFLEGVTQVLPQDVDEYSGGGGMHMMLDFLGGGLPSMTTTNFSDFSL
# Test: PBM E-score (8-mer binding enrichment) (E-score (-0.5 to 0.5)); higher = stronger / more preferred TF binding; most listed sequences are background and not binding sites
# Settings: protein concentration: 200 nM; construct: GST-full length
# Description: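 Universal 'all 10-mer' protein binding microarrays (Agilent AMADID 015681) probed with GST-tagged S. cerevisiae TFs (full-length or DBD) made by in vitro transcription/translation (PURExpress), about 100-200 nM. Bound TF was detected with fluorescent anti-GST. Each ungapped 8-mer (which stands for itself and its reverse complement) is scored by the PBM enrichment score (E-score), a modified Wilcoxon-Mann-Whitney statistic from -0.5 to +0.5, computed with the Universal PBM Analysis Suite. Scale: above 0.35 generally sequence-specific binding.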
row,Sequence,PBM E-score
1,GAAGGCTA,-0.146
2,CTATGAAC,0.0942
3,GAGACAAC,-0.068
4,AAAGCAGT,-0.125
5,ACTCAGAA,0.0112
6,AGGTTAAT,-0.0345
7,AACGAGGG,0.43
8,CTTATCTC,-0.0143
9,CAGACCTG,-0.0763
10,GAGTGTCC,-0.00924
11,AATAACCT,-0.112
12,AGGCATAC,-0.00796
13,ACATTCAA,-0.0481
14,AGCTTACC,-0.108
15,GAGGTGAC,-0.0769
16,CCATCATA,-0.29
17,CGGAATGC,-0.118
18,ACGTCACG,-0.0401
19,AATGGCCC,-0.213
20,ACTCTCTG,-0.0196
21,ATTTGTTC,0.22
22,CGCACGCC,0.0144

row,Sequence,PBM E-score
1,GGTCGTAA,0.421
2,AAGGTGCG,0.00721
3,CCGGGACA,-0.213
4,GCTGTACC,-0.131
5,AGGATTAG,-0.0183
6,AAGCTACC,-0.14
7,TACTCGCA,0.17
8,ACACTCAA,0.12
9,GTTACGGA,0.233
10,GGCCCGAC,-0.167
11,AACTCTTA,0.181
12,GACATCGA,-0.0104
13,CGCACCGC,0.0242
14,ATCGAGGA,0.0976
15,ATGTATTA,0.0629
16,GCTATACC,0.144
17,AGCACCTG,-0.273
18,CGCTCACC,0.1
19,ACCTGCCC,-0.328
20,AATGCCAA,-0.189
21,AACGGTCC,0.169
22,AAACAAGC,-0.0355

row,Sequence,PBM E-score
1,ATCCAGGG,-0.0324
2,AGTCCGGG,-0.185
3,CGTCGCCA,-0.0835
4,CTGCCTAC,-0.0176
5,GGACCCAA,-0.281
6,GCTATTCA,-0.0451
7,TAACCGTA,0.359
8,CCCGCGCG,0.0368
9,GAGAGAAA,-0.00289
10,GCCAGCTA,-0.147
11,CGGGTGAA,-0.0255
12,GGCCGGAC,-0.0799
13,AGTATCTC,0.0648
14,AAAACATA,0.142
15,GACGGATC,-0.0452
16,AATACGTG,0.155
17,GACTTTGC,-0.0185
18,CCATTCCC,-0.179
19,CGTGAACG,0.369
20,CTAGGATA,-0.0891
21,ACGCTATG,-0.104
22,CGTTCACC,0.318

row,Sequence,PBM E-score
1,AAAACGTA,0.123
2,ATTGATTG,-0.106
3,GCTTTAAC,0.234
4,ATAAATTG,0.0796
5,AAAAATAT,0.0488
6,GCGATCAC,-0.0932
7,AAGAGCTA,-0.126
8,CTTGGCGA,-0.221
9,AGACCAAC,-0.177
10,CAAGGATG,-0.322
11,GGCTCAAA,-0.0897
12,CCAACCTC,-0.0315
13,ACTCGCCC,-0.205
14,ACGGCCGG,0.185
15,TAAGCGAA,0.357
16,AATCTTGC,0.0564
17,ACATTTGA,-0.0192
18,CATAGGCC,-0.00042
19,CTACATAA,-0.282
20,GTTGCAAC,0.176
